# Laboratory results: the BET-seq Pho4 binding data (Le et al. 2018)
# The list shows a part of the results. The energies were worked out here from pooled read counts, against the library average; single values are noisy.
# Molecular target: T1, Pho4 (S. cerevisiae) (UniProt P07270)
# T1 sequence: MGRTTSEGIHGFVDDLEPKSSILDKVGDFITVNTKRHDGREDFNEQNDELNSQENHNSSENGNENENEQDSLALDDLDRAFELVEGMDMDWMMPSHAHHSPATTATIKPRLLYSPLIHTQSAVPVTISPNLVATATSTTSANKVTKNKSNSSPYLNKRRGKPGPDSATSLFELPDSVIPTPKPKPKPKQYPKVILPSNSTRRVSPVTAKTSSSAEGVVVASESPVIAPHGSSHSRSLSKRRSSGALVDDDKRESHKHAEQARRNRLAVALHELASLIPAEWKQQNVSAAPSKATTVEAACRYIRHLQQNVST
# Test: relative binding free energy (BET-seq); higher = weaker binding
# Conditions: reference: library average
row,Sequence,relative binding free energy
1,TATGTCACGTGAATAT,0.29 kcal/mol
2,GGCTACACGTGCTGGT,0.26 kcal/mol
3,GGAGGCACGTGGGACT,-0.15 kcal/mol
4,GTTAGCACGTGGCATT,0.13 kcal/mol
5,AAGGGCACGTGAGCGA,0.09 kcal/mol
6,AGGGGCACGTGAAGGA,0.19 kcal/mol
7,TTAAACACGTGTGGGT,0 kcal/mol
8,TCTGTCACGTGGGCGT,0 kcal/mol
9,TTTATCACGTGGGTGT,0.07 kcal/mol
10,TGATCCACGTGGGGGG,-0.11 kcal/mol
11,ATCATCACGTGTTGTT,0.02 kcal/mol
12,GGTTACACGTGTATCG,0.25 kcal/mol
13,TTGGACACGTGGGGGG,0 kcal/mol
14,TTTATCACGTGAGATA,0.4 kcal/mol
15,GCGGCCACGTGGGGGT,-0.14 kcal/mol
16,GTGGACACGTGAGTGC,0.26 kcal/mol
17,TAAATCACGTGTATGG,0.07 kcal/mol
18,GTTGGCACGTGATGTT,0.11 kcal/mol
19,GGTGGCACGTGCTGGT,-0.07 kcal/mol
20,TGGGCCACGTGAATTG,0.27 kcal/mol
21,TGGAACACGTGCGGTA,-0.01 kcal/mol
22,TGTAACACGTGTCAGT,-0.06 kcal/mol
23,TAAGTCACGTGGGAGC,0.03 kcal/mol
24,ATTATCACGTGTTATA,0.26 kcal/mol
25,TTTGGCACGTGTGTAT,-0.04 kcal/mol

row,Sequence,relative binding free energy
1,TTACGCACGTGTTGAT,0 kcal/mol
2,ATAACCACGTGTGTGG,-0.13 kcal/mol
3,TGTGACACGTGGATCG,-0.06 kcal/mol
4,GGGCGCACGTGGGCAG,-0.18 kcal/mol
5,TGGTGCACGTGAATCT,0.3 kcal/mol
6,TAGAACACGTGGGTGA,-0.13 kcal/mol
7,TGGGCCACGTGGTTGT,-0.13 kcal/mol
8,CTTAACACGTGTGGGG,0.06 kcal/mol
9,GAGTGCACGTGTGGCG,0.07 kcal/mol
10,TTTCACACGTGTTTTT,0.27 kcal/mol
11,TATCGCACGTGCGTGT,-0.07 kcal/mol
12,TAGGTCACGTGCGTTT,0.07 kcal/mol
13,GGGTGCACGTGTGATA,0.12 kcal/mol
14,CATTGCACGTGGTAAG,0.11 kcal/mol
15,TCGATCACGTGGTCGG,0.03 kcal/mol
16,AGGTGCACGTGCAGTG,-0.08 kcal/mol
17,ACGTGCACGTGGAGTA,-0.04 kcal/mol
18,GTCGCCACGTGTGGGG,-0.02 kcal/mol
19,ATGGACACGTGTATAA,0.18 kcal/mol
20,TTGTTCACGTGGTGAT,0.37 kcal/mol
21,AGTGCCACGTGGGCGT,-0.33 kcal/mol
22,AGGATCACGTGGGATT,0.18 kcal/mol
23,GTGGTCACGTGCACTG,0.06 kcal/mol
24,CTGGTCACGTGGGCTA,0.05 kcal/mol
25,TAAAGCACGTGTTTTG,-0.16 kcal/mol

row,Sequence,relative binding free energy
1,ATCGGCACGTGGTAGA,-0.19 kcal/mol
2,GGTTTCACGTGTCGCT,0.16 kcal/mol
3,ATAGGCACGTGAGGAA,0.05 kcal/mol
4,ATTATCACGTGGGCAG,0 kcal/mol
5,GTACACACGTGGTTTG,-0.17 kcal/mol
6,GACGGCACGTGGGGGA,-0.21 kcal/mol
7,GATGTCACGTGCAGGA,0.24 kcal/mol
8,TTCGTCACGTGAATGG,0.37 kcal/mol
9,GAAGTCACGTGGGTGC,0.07 kcal/mol
10,TAATTCACGTGTTAAT,0.2 kcal/mol
11,ATTTACACGTGGATGG,-0.01 kcal/mol
12,TGATTCACGTGTGAGC,0.2 kcal/mol
13,TTGAACACGTGGACTT,0.28 kcal/mol
14,GGGGACACGTGAATGT,0.14 kcal/mol
15,GTTCTCACGTGGGATT,0.18 kcal/mol
16,TTGCGCACGTGGGGAG,-0.19 kcal/mol
17,TTTGACACGTGTGTGT,0.09 kcal/mol
18,AGCGGCACGTGGTAGG,-0.07 kcal/mol
19,TTTGGCACGTGTCCAT,-0.1 kcal/mol
20,GATCACACGTGGAGGG,0.13 kcal/mol
21,GTTGTCACGTGTAATA,0.13 kcal/mol
22,TTGGGCACGTGGTAAG,-0.1 kcal/mol
23,GTGCGCACGTGTGAGT,-0.04 kcal/mol
24,CTGGTCACGTGGGAGA,-0.08 kcal/mol
25,GGTTACACGTGAGGAG,0.19 kcal/mol

row,Sequence,relative binding free energy
1,TGTGGCACGTGAGGTC,0.2 kcal/mol
2,TGAAGCACGTGGGTGA,-0.23 kcal/mol
3,CGTTTCACGTGTTACG,0.17 kcal/mol
4,GGTCTCACGTGGGCAT,0.21 kcal/mol
5,GGGCGCACGTGTTAGA,0.02 kcal/mol
6,TGGGTCACGTGAATCA,0.45 kcal/mol
7,TGTGGCACGTGAGAGC,0.2 kcal/mol
8,TTGTTCACGTGGAACG,0.28 kcal/mol
9,GCATGCACGTGTTTTG,0.02 kcal/mol
10,GGGGGCACGTGCTCTG,-0.18 kcal/mol
11,AGCAGCACGTGTAGTT,0.03 kcal/mol
12,TCTGACACGTGGGGGC,-0.1 kcal/mol
13,AGAGGCACGTGAATTG,0.12 kcal/mol
14,TGCAGCACGTGTGTGA,-0.03 kcal/mol
15,TGTGTCACGTGTCCGG,0.1 kcal/mol
16,TGGCGCACGTGCGAGG,-0.08 kcal/mol
17,AATTGCACGTGCTTTG,-0.07 kcal/mol
18,GGTGGCACGTGACGTT,-0.01 kcal/mol
19,CGGTACACGTGATGTT,0.19 kcal/mol
20,GTGGGCACGTGAGCTA,0.07 kcal/mol
21,TTGTTCACGTGGCGGA,0.15 kcal/mol
22,TGGTACACGTGGGGCA,0.02 kcal/mol
23,GGGCGCACGTGTCGGG,-0.03 kcal/mol
24,TTCCGCACGTGGTGTA,-0.21 kcal/mol
25,TGGTGCACGTGTTTCC,0.14 kcal/mol

row,Sequence,relative binding free energy
1,GGAGTCACGTGATGTA,0.31 kcal/mol
2,TGTAGCACGTGATCTT,0.01 kcal/mol
3,AATGGCACGTGGTTGT,-0.19 kcal/mol
4,CTGAGCACGTGGTAGT,-0.25 kcal/mol
5,TGTAGCACGTGTGTTC,-0.04 kcal/mol
6,AGAGGCACGTGAGGTT,0.12 kcal/mol
7,CGGAGCACGTGCTGGT,-0.05 kcal/mol
8,TTAGGCACGTGCGGGG,-0.19 kcal/mol
9,AGGAACACGTGTGTGT,0.15 kcal/mol
10,TTCTACACGTGAGGCG,0.36 kcal/mol
11,GGATTCACGTGGTTTT,0.22 kcal/mol
12,GTAGACACGTGGTGTG,-0.05 kcal/mol
13,AAAAGCACGTGGGGTT,-0.15 kcal/mol
14,TACGGCACGTGATGGG,0.16 kcal/mol
15,GACTTCACGTGGTGGG,0.36 kcal/mol
16,GTGTACACGTGCGTGT,-0.02 kcal/mol
17,GGGATCACGTGTGAGG,0.25 kcal/mol
18,GCTGGCACGTGTCAGT,0.12 kcal/mol
19,TTTCTCACGTGGGAGT,0.19 kcal/mol
20,GAGGGCACGTGCGGTG,-0.12 kcal/mol
21,ACATACACGTGTGTTT,0.07 kcal/mol
22,GTGATCACGTGTGGGA,0.06 kcal/mol
23,GCATTCACGTGGGGCG,0.14 kcal/mol
24,TACTTCACGTGTGTGG,0.36 kcal/mol
25,ATGATCACGTGTAATT,0.26 kcal/mol

row,Sequence,relative binding free energy
1,TTGTACACGTGAGGTG,0.34 kcal/mol
2,TATGGCACGTGTGGCA,-0.08 kcal/mol
3,GGTTACACGTGGGCGG,0.02 kcal/mol
4,TCAGGCACGTGGGGCG,-0.38 kcal/mol
5,TTTTTCACGTGGGCAT,0.21 kcal/mol
6,AGCCGCACGTGATGGG,0.06 kcal/mol
7,GTACACACGTGGGGGG,-0.14 kcal/mol
8,GGATACACGTGATGAG,0.32 kcal/mol
9,AATTTCACGTGAAGTG,0.34 kcal/mol
10,CGGGACACGTGTAGGT,0.06 kcal/mol
11,TGGTTCACGTGGTCCG,0.22 kcal/mol
12,AGTAGCACGTGGAACT,0.24 kcal/mol
13,TTGCGCACGTGGAGCG,-0.12 kcal/mol
14,CGCATCACGTGGGGTT,0.06 kcal/mol
15,TTAGGCACGTGGTATA,-0.07 kcal/mol
16,CGAGACACGTGGGTTA,-0.03 kcal/mol
17,TGCGGCACGTGAATTT,0.38 kcal/mol
18,AAGGGCACGTGGAACG,-0.11 kcal/mol
19,TTTATCACGTGCTTAA,0.14 kcal/mol
20,GGGATCACGTGTTAGT,0.18 kcal/mol
21,GATGGCACGTGTATCG,-0.01 kcal/mol
